# Laboratory results published in the supplement of paper PMC8728848.
# The other results are listed elsewhere or left out.
# B1: HML-Native (Hypnea musciformis), P84871 (protein)
# chain: QKFCTLDIAPVCCQIVIGGGMYTAGNACMCEGFVSGVGRCENPKECPCTREAQIPSCCSSRWGLVSVTGKCACDCLGGTVAFPEPCPSPY
# Assays:
# Assay in all cases: glycan array binding signal (z-score within array); higher = stronger binding
# Details in all cases: glycan notation: IUPAC condensed, linker removed
# [1] = target: Gal(b1-4)GlcNAc(b1-3)Gal(b1-4)GlcNAc(b1-3)Gal(b1-4)GlcNAc(b1-3)Gal(b1-4)GlcNAc(b1-2)Man(a1-3)[Gal(b1-4)GlcNAc(b1-3)Gal(b1-4)GlcNAc(b1-3)Gal(b1-4)GlcNAc(b1-3)Gal(b1-4)GlcNAc(b1-2)Man(a1-6)]Man(b1-4)GlcNAc(b1-4)GlcNAc
# In short: (§1)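 Glycan array data were curated from 3228 arrays in the Consortium for Functional Glycomics database and kept only where the protein sequence was available. Glycan names were converted to IUPAC-condensed notation, and columns mapping to the same glycan were averaged. The binding signal is a within-array Z-score, averaged across arrays of the same protein sequence at different concentrations or buffers and across linkers. Negative Z-scores can be read as non-binding.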
# [2] = target: Gal(b1-4)GlcNAc(b1-3)Gal(b1-4)GlcNAc(b1-3)Gal(b1-4)GlcNAc(b1-3)Gal(b1-4)GlcNAc(b1-2)Man(a1-3)[Gal(b1-4)GlcNAc(b1-3)Gal(b1-4)GlcNAc(b1-3)Gal(b1-4)GlcNAc(b1-3)Gal(b1-4)GlcNAc(b1-2)Man(a1-6)]Man(b1-4)GlcNAc(b1-4)[Fuc(a1-6)]GlcNAc
# In short: as §1
# [3] = target: Gal(b1-4)GlcNAc(b1-3)Gal(b1-4)GlcNAc(b1-3)Gal(b1-4)GlcNAc(b1-3)Gal(b1-4)GlcNAc(b1-2)[Gal(b1-4)GlcNAc(b1-3)Gal(b1-4)GlcNAc(b1-3)Gal(b1-4)GlcNAc(b1-3)Gal(b1-4)GlcNAc(b1-6)]Man(a1-6)[Gal(b1-4)GlcNAc(b1-3)Gal(b1-4)GlcNAc(b1-3)Gal(b1-4)GlcNAc(b1-3)Gal(b1-4)GlcNAc(b1-2)Man(a1-3)]Man(b1-4)GlcNAc(b1-4)[Fuc(a1-6)]GlcNAc
# In short: as §1
# [4] = target: Gal(b1-4)GlcNAc(b1-3)Gal(b1-4)GlcNAc(b1-3)Gal(b1-4)GlcNAc(b1-3)Gal(b1-4)GlcNAc(b1-3)Gal(b1-4)GlcNAc(b1-2)Man(a1-3)[Gal(b1-4)GlcNAc(b1-3)Gal(b1-4)GlcNAc(b1-3)Gal(b1-4)GlcNAc(b1-3)Gal(b1-4)GlcNAc(b1-3)Gal(b1-4)GlcNAc(b1-2)Man(a1-6)]Man(b1-4)GlcNAc(b1-4)GlcNAc
# In short: as §1
# [5] = target: Gal(b1-4)GlcNAc(b1-3)Gal(b1-4)GlcNAc(b1-3)Gal(b1-4)GlcNAc(b1-3)Gal(b1-4)GlcNAc(b1-3)Gal(b1-4)GlcNAc(b1-2)Man(a1-3)[Gal(b1-4)GlcNAc(b1-3)Gal(b1-4)GlcNAc(b1-3)Gal(b1-4)GlcNAc(b1-3)Gal(b1-4)GlcNAc(b1-3)Gal(b1-4)GlcNAc(b1-2)Man(a1-6)]Man(b1-4)GlcNAc(b1-4)[Fuc(a1-6)]GlcNAc
# In short: as §1
# [6] = target: Gal(b1-4)GlcNAc(b1-3)Gal(b1-4)GlcNAc(b1-3)Gal(b1-4)GlcNAc(b1-3)Gal(b1-4)GlcNAc(b1-3)Gal(b1-4)GlcNAc(b1-2)[Gal(b1-4)GlcNAc(b1-3)Gal(b1-4)GlcNAc(b1-3)Gal(b1-4)GlcNAc(b1-3)Gal(b1-4)GlcNAc(b1-3)Gal(b1-4)GlcNAc(b1-6)]Man(a1-6)[Gal(b1-4)GlcNAc(b1-3)Gal(b1-4)GlcNAc(b1-3)Gal(b1-4)GlcNAc(b1-3)Gal(b1-4)GlcNAc(b1-3)Gal(b1-4)GlcNAc(b1-2)Man(a1-3)]Man(b1-4)GlcNAc(b1-4)[Fuc(a1-6)]GlcNAc
# In short: as §1
# [7] = target: Gal(b1-4)GlcNAc(b1-3)Gal(b1-4)GlcNAc(b1-3)Gal(b1-4)GlcNAc(b1-3)Gal(b1-4)GlcNAc(b1-3)Gal(b1-4)GlcNAc(b1-3)Gal(b1-4)GlcNAc(b1-2)Man(a1-3)[Gal(b1-4)GlcNAc(b1-3)Gal(b1-4)GlcNAc(b1-3)Gal(b1-4)GlcNAc(b1-3)Gal(b1-4)GlcNAc(b1-3)Gal(b1-4)GlcNAc(b1-3)Gal(b1-4)GlcNAc(b1-2)Man(a1-6)]Man(b1-4)GlcNAc(b1-4)GlcNAc
# In short: as §1
# [8] = target: Gal(b1-4)GlcNAc(b1-3)Gal(b1-4)GlcNAc(b1-3)GalNAc
# In short: as §1
# [9] = target: Gal(b1-4)GlcNAc(b1-3)Gal(b1-4)GlcNAc(b1-3)[Gal(b1-4)GlcNAc(b1-3)Gal(b1-4)GlcNAc(b1-6)]GalNAc
# In short: as §1
# [10] = target: Gal(b1-4)GlcNAc(b1-3)Gal(b1-4)GlcNAc(b1-6)[Gal(b1-3)]GalNAc
# In short: as §1
# [11] = target: Gal(b1-4)GlcNAc(b1-3)Gal(b1-4)[Fuc(a1-3)]GlcNAc(b1-3)Gal(b1-4)[Fuc(a1-3)]GlcNAc
# In short: as §1
# [12] = target: Gal(b1-4)GlcNAc(b1-3)GalNAc
# In short: as §1
# [13] = target: Gal(b1-4)GlcNAc(b1-3)[Fuc(a1-3)GlcNAc(b1-6)]Gal(b1-4)Glc
# In short: as §1
# [14] = target: Gal(b1-4)GlcNAc(b1-3)[Gal(b1-4)GlcNAc(b1-6)]Gal(b1-4)GlcNAc
# In short: as §1
# [15] = target: Gal(b1-4)GlcNAc(b1-3)[GlcNAc(b1-6)]Gal(b1-4)GlcNAc
# In short: as §1
# [16] = target: Gal(b1-4)GlcNAc(b1-6)Gal(b1-4)GlcNAc
# In short: as §1
# [17] = target: Gal(b1-4)GlcNAc(b1-6)GalNAc
# In short: as §1
# [18] = target: Gal(b1-4)GlcNAc(b1-6)[Gal(b1-3)]GalNAc
# In short: as §1
# [19] = target: Gal(b1-4)GlcNAc(b1-6)[Gal(b1-4)GlcNAc(b1-3)]GalNAc
# In short: as §1
# [20] = target: Gal(b1-4)GlcNAc6P
# In short: as §1
# [21] = target: Gal(b1-6)Gal
# In short: as §1
# [22] = target: Gal3S(b1-3)GalNAc
# In short: as §1
# [23] = target: Gal3S(b1-3)GlcNAc
# In short: as §1
binder,measurement,setting,value
B1,glycan array binding signal (z-score),[1],-0.112
same,glycan array binding signal (z-score),[2],4.9
same,glycan array binding signal (z-score),[3],2.48
same,glycan array binding signal (z-score),[4],-0.175
same,glycan array binding signal (z-score),[5],4.8
same,glycan array binding signal (z-score),[6],2.48
same,glycan array binding signal (z-score),[7],-0.227
same,glycan array binding signal (z-score),[8],-0.257
same,glycan array binding signal (z-score),[9],-0.183
same,glycan array binding signal (z-score),[10],-0.192
same,glycan array binding signal (z-score),[11],-0.11
same,glycan array binding signal (z-score),[12],-0.254
same,glycan array binding signal (z-score),[13],-0.179
same,glycan array binding signal (z-score),[14],-0.199
same,glycan array binding signal (z-score),[15],-0.261
same,glycan array binding signal (z-score),[16],-0.225
same,glycan array binding signal (z-score),[17],-0.287
same,glycan array binding signal (z-score),[18],-0.24
same,glycan array binding signal (z-score),[19],-0.229
same,glycan array binding signal (z-score),[20],-0.304
same,glycan array binding signal (z-score),[21],-0.191
same,glycan array binding signal (z-score),[22],-0.122
same,glycan array binding signal (z-score),[23],-0.195
